In the supplement of paper PMC10126150:
Values marked as one replicate rest on one cluster of the flow cell; about a third of the high ones do not repeat.

Test system: ATP
Assay: switch fluorescence ratio, 500 uM ATP over buffer (Cy3 cluster intensity, sum of 5 cycles each) (fold (ratio)); higher = stronger signal-on switching upon ATP binding; sequences stand for … in TCGTCGGCAGCGTCAGATGTGTATAAGAGACAGTTTTTTTTTTTTTTTTTTTTTTTTT…TC
Conditions: aptamer strand: ATP DNA aptamer (quencher-CACCTGGGGGAGTATTGCGGAGGAAGG + anchor), 100 nM annealed; ATP concentration: 500 uM; one replicate
Method in brief: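 The fluorescence ratio divides summed target-cycle Cy3 intensity by summed buffer-cycle Cy3 intensity for each cluster and is averaged per switch-domain sequence. Cy3-labelled switching-strand clusters on a modified Illumina MiSeq flow-cell were annealed to 100 nM quencher-labelled ATP aptamer, then imaged in selection buffer and again after 15 min with 500 uM ATP at 22 °C. Five such cycles were run, with NaOH stripping and re-annealing between them, and clusters outside 100-1000 RFU were excluded.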
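Note: ATP exposure 15 min at 22 °C before imaging.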

Row | Sequence | switch fluorescence ratio
1 | GTGTCTTGGG | 0.925
2 | TTTTACACTC | 1
3 | TTCGGCGACA | 1.01
4 | AAGTGTTG | 0.971
5 | TATTTCACG | 1.05
6 | CCGTGAAAGA | 0.98
7 | GGTGTATACT | 0.986
8 | TATATATTCT | 1.01
9 | TCGCGATTTT | 0.993
10 | GGGATTGCAT | 1.03
11 | TAAAGAGAAG | 1.16
12 | ACGGTATGCG | 1.07
13 | TCAATGTCCC | 1.04
14 | TATGTGCGGG | 1.02
15 | AGGGAAAACT | 1.06
16 | CTCATGGGGG | 1.02
17 | TCCATTGAGC | 1.06
18 | CGAAGGCATG | 1.05
19 | CGTCTCATAG | 1.03
20 | GGGGCTAAAC | 2.11
21 | GCTTGTTGCA | 0.97
22 | TGGGTAGTCT | 0.99
23 | TGGGCAAAA | 1.1

Row | Sequence | switch fluorescence ratio
24 | CTAAAGAGTC | 1
25 | CCGGGCCAGT | 1.1
26 | TACTTGGGAC | 1
27 | TACATTGATC | 1.04
28 | TACTGCTACT | 1.1
29 | CTAATCAGAC | 1.03
30 | CAGAGTATAG | 1.01
31 | TTTGGTGTAC | 1.16
32 | CATGCACCTT | 1.13
33 | TTACGACTTG | 1.01
34 | CGTAAGGACA | 1
35 | CTAGGGCTCC | 0.981
36 | TGAAAAATCG | 1
37 | AGATACAATA | 1.02
38 | CTGCCATGAA | 1.03
39 | TCATATGTCG | 1.16
40 | TACGATGGAC | 1.14
41 | TTAATGCGAT | 1.03
42 | TCACCTAAGG | 1.03
43 | AGCCAGAGG | 1.02
44 | TGCAAGGAGG | 0.978
45 | CTGCGGAAAC | 1.3
46 | CATAGATTAC | 1.06

Row | Sequence | switch fluorescence ratio
47 | ACGGGTTCAC | 1.01
48 | GGTCGTGTAC | 0.993
49 | ACTGGCGCCG | 1.03
50 | TGGGTTGGAC | 0.967
51 | CGCGTGGTCT | 0.998
52 | CTTTCCACTG | 1.08
53 | CTTGGAGCCG | 0.996
54 | TGCTGTTAGG | 0.962
55 | ATGCTTGACC | 1.03
56 | CAATCTAGAA | 1.01
57 | GAAACGGCGC | 1.1
58 | AATCACATGC | 1.05
59 | CACGGCTGCT | 1.06
60 | CGGACTGTT | 1.01
61 | ACATGTAACC | 0.979
62 | GGGAATAAAA | 0.969
63 | CCGGTTTAGC | 1.15
64 | TATGCTGGT | 0.931
65 | CGTGCCGCTC | 1.05
66 | TTCTTGCCTT | 1
67 | CGCCCTGGGT | 1.35
68 | GGCACGAGGT | 0.948
69 | GGCAGTGCAC | 0.964

Row | Sequence | switch fluorescence ratio
70 | CGGAAGGTGA | 1.2
71 | ATATGCCGAG | 1.07
72 | TAGCGCAAGG | 1.07
73 | ATATTCCTCC | 1.91
74 | GCGGCACAGG | 1.33
75 | CTAGGGGA | 1.15
76 | GGATTGAAGC | 0.958
77 | CGCTCTGAT | 0.931
78 | CTGTGTACGG | 1.03
79 | TTGGTCGCGA | 0.992
80 | CGTCGGTCAT | 0.944
81 | TTGTATAACG | 0.936
82 | GGACTTATAA | 1.04
83 | AAAAAACTTA | 1.12
84 | GGTTGAGCTT | 0.982
85 | CTGGCTGTGC | 1.03
86 | AGGGATCCCG | 0.972
87 | AGGCCCCTAG | 0.977
88 | TAACAACCCA | 1.07
89 | CTTGGGCGGG | 1.01
90 | AAGATTGGA | 0.977
91 | GACTTGTTCC | 1.01
92 | AAGCTGAAAT | 1.3

Row | Sequence | switch fluorescence ratio
93 | TGAATTACTG | 1.06
94 | TCACACTAGT | 1.04
95 | CACTTATACA | 1.12
96 | CGCGCAAGTG | 1.06
97 | CTAGTAATTA | 1
98 | GTACTTTATA | 1.01
99 | TATAGTCTTG | 1.01
100 | AAAAAGCGAA | 0.998
101 | ATGCCTATGT | 0.943
102 | GCACAGCGCG | 0.979
103 | GTTGGATCGA | 1.05
104 | GACTGGTCGG | 1.02
105 | GTATTCTTTG | 1.02
106 | AGATACTGC | 1.17
107 | TGGATGGCAC | 1.02
108 | CGCTTTTAGG | 0.94
109 | GGGTAAGAGG | 1.03
110 | GAAAGGGACC | 0.942
111 | AGGCGAACA | 0.987
112 | TCACCTTCAT | 1.61
113 | TAGCTCAGTT | 0.967
114 | TAATTTCGCG | 0.971
115 | CTGCATTGCA | 1.06

Row | Sequence | switch fluorescence ratio
116 | CAATGGTACT | 1.05
117 | CGGTTCTAC | 1.05
118 | GTTAACGCGC | 1.02
119 | CAAACAACGG | 1.03
120 | CGGATGCATC | 1.05
121 | CATATTCGCG | 0.983
122 | TCTGGGATCG | 1
123 | GAGGGATCAT | 1.03
124 | TTCGTGCGA | 1.29
125 | GAGTGTAATC | 0.943
126 | ACAAGAAACG | 1.08
127 | CTCAAGTGTA | 1
128 | AGTGGGGAGG | 1.04
129 | CCTAAGCGGG | 1.09
130 | CTAGCCATTC | 1.11
131 | GATAGTATTC | 0.987
132 | GTTACAGCGA | 1.05
133 | TTTGGAAGTG | 0.967
134 | ACGTAAAGCC | 1.08
135 | ATTCATTATA | 1
136 | GTAGTATCGG | 1.02
137 | TCCAAAGCTT | 1.25
138 | CTCAATTACC | 1.11

Row | Sequence | switch fluorescence ratio
139 | ACACGCTATG | 1.18
140 | TATTGAAGG | 1
141 | CTGGGCGCGG | 0.961
142 | AGGATCATTC | 0.947
143 | TTTCTGGACT | 1.06
144 | CATACGCAGA | 3.08
145 | CATGCGATCA | 1.01
146 | GGTATGTCTT | 0.978
147 | GGAGCTAGAT | 1.34
148 | CGCCGAGTTA | 1.01
149 | TCTCCCATG | 1.28
150 | GCCCTGAATG | 0.981
151 | TCGCCCCAGT | 1.06
152 | GGTCTATTGT | 1
153 | CGGCGCTGGT | 0.942
154 | GCGACGGACC | 1.56
155 | ACAGTGTTAT | 0.942
156 | AGGCGAATG | 0.952
157 | TCGTGGTATT | 1
